Data taken from a compilation of properties of binary mixtures (doi:10.1021/je060126x).
The densities may have been worked out from excess volumes.

Assay: xn = mol fraction of the nth substance listed
Conditions: 298.15 K, 101 kPa

CCOS(=O)(=O)[O-].CC[n+]1ccn(C)c1 + CCO
Conditions	mass density [kg/m3]
x2 = 0.1271	1220.7
x2 = 0.1281	1220.6
x2 = 0.3598	1176.3
x2 = 0.4604	1150.1
x2 = 0.5103	1134.8
x2 = 0.5223	1131
x2 = 0.5724	1113.2
x2 = 0.5951	1104.5
x2 = 0.712	1050.5
x2 = 0.7174	1047.7
x2 = 0.806	992
x2 = 0.8666	943.3
x2 = 0.9026	908.9
x2 = 0.9062	905
x2 = 0.9504	854.7
x2 = 0.9522	852.3
